According to the BET-seq Pho4 binding data (Le et al. 2018):
This is one part of the list. The energies were worked out here from pooled read counts, against the library average; single values are noisy.

Target: T1, Pho4 (S. cerevisiae) (UniProt P07270)
T1 sequence: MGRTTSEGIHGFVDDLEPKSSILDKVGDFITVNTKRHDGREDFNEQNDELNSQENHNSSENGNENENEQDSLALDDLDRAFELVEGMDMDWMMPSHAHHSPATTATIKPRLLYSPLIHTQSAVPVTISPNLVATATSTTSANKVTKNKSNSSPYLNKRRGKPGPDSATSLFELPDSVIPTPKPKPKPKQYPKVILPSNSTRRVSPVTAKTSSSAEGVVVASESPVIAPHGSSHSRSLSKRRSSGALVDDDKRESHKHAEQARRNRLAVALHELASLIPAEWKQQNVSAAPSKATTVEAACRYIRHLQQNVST
Test: relative binding free energy (BET-seq); higher = weaker binding
Details: reference: library average

Sequence | relative binding free energy
TTCGACACGTGTGGTA | 0.13 kcal/mol
GGGTGCACGTGTGAAT | 0.13 kcal/mol
ATTTGCACGTGAGGAG | 0.2 kcal/mol
GGCCGCACGTGGTAGG | 0.09 kcal/mol
TGATTCACGTGGCAGA | 0.34 kcal/mol
AGGAGCACGTGAATGT | 0.38 kcal/mol
ATGGGCACGTGGGCCT | -0.25 kcal/mol
TTATGCACGTGGGAGT | -0.07 kcal/mol
TAACGCACGTGGGTAG | -0.2 kcal/mol
TCCTTCACGTGTTGTT | 0.22 kcal/mol
AAAGCCACGTGGTTTG | -0.11 kcal/mol
AAGTACACGTGTATGG | 0.1 kcal/mol
CATTGCACGTGGGGCG | -0.13 kcal/mol
TTATACACGTGTGGCT | 0.11 kcal/mol
AGGTACACGTGGGACT | -0.01 kcal/mol
TCTGGCACGTGATATA | -0.02 kcal/mol
AGAGACACGTGTAGTT | 0.15 kcal/mol
ATTTTCACGTGCTTTC | 0.24 kcal/mol
CAAGGCACGTGGGGAT | -0.1 kcal/mol
TAGTCCACGTGGTGTT | -0.14 kcal/mol
CTTGTCACGTGGGAGG | -0.03 kcal/mol
GGTTGCACGTGTAAAA | 0.04 kcal/mol
GGTGTCACGTGATTAT | 0.21 kcal/mol
ATGTGCACGTGTCTGT | -0.09 kcal/mol
ATTGTCACGTGTTGCA | 0 kcal/mol
ATTTGCACGTGAAGCG | 0.23 kcal/mol

Sequence | relative binding free energy
TAGGACACGTGGTCGA | -0.09 kcal/mol
ACGAGCACGTGTGGTT | -0.11 kcal/mol
GTCATCACGTGCGTTG | 0.17 kcal/mol
AGATGCACGTGTATTA | -0.01 kcal/mol
GTTAACACGTGATGAA | 0.24 kcal/mol
TACTTCACGTGTGGGA | 0.18 kcal/mol
GTTTACACGTGAGTTA | 0.26 kcal/mol
AGTCGCACGTGTTCGG | -0.04 kcal/mol
CGGTTCACGTGCTGGA | 0.17 kcal/mol
CGCGCCACGTGGGTGT | -0.26 kcal/mol
GACGGCACGTGTATTT | 0.16 kcal/mol
GTTGCCACGTGTTGCG | -0.08 kcal/mol
ATTTACACGTGGAAGT | 0.25 kcal/mol
AAATGCACGTGTGTAA | 0.14 kcal/mol
AGGTACACGTGTATGT | 0.02 kcal/mol
TTGAACACGTGGATTA | 0.08 kcal/mol
CATTGCACGTGTGAGG | 0.01 kcal/mol
TGGGTCACGTGTGATC | 0.09 kcal/mol
TGGGTCACGTGCGGAC | 0.24 kcal/mol
TGGGTCACGTGGTTCT | 0.01 kcal/mol
CGTGCCACGTGGTGTG | -0.31 kcal/mol
TGGTGCACGTGTGAAC | 0.05 kcal/mol
GGTTTCACGTGTGTCA | 0.32 kcal/mol
GGGTGCACGTGGAAAT | 0.13 kcal/mol
GGGTTCACGTGGTAGC | 0.18 kcal/mol
AAAGGCACGTGATTAT | 0.07 kcal/mol

Sequence | relative binding free energy
GTGGCCACGTGCTGGT | -0.17 kcal/mol
GTTTGCACGTGGGCTG | -0.04 kcal/mol
AAAGGCACGTGGGACG | -0.17 kcal/mol
GTTGGCACGTGTATGG | 0.06 kcal/mol
TTAGACACGTGGAGGA | -0.14 kcal/mol
AAGTGCACGTGCGATG | 0.03 kcal/mol
CGCTTCACGTGGTGGG | 0.17 kcal/mol
GGTTTCACGTGTGAGT | 0.26 kcal/mol
GGGGCCACGTGTCATG | -0.03 kcal/mol
ATGATCACGTGGGAGG | -0.04 kcal/mol
GTAAGCACGTGTTAGT | -0.02 kcal/mol
GATCTCACGTGTGAGG | 0.28 kcal/mol
ATGAGCACGTGGGCTG | -0.25 kcal/mol
AGTAACACGTGGGCAG | -0.11 kcal/mol
AATTTCACGTGAGTTA | 0.32 kcal/mol
TTTCTCACGTGAATTG | 0.52 kcal/mol
GTCTACACGTGGGAGT | 0.12 kcal/mol
GTGCACACGTGGGCTT | -0.08 kcal/mol
TAGGTCACGTGGACTG | 0.12 kcal/mol
TATTTCACGTGACTGC | 0.49 kcal/mol
ACAGTCACGTGTGGGG | 0.09 kcal/mol
TTTGGCACGTGTTTCA | 0.03 kcal/mol
GTTTACACGTGGTGCT | 0.08 kcal/mol
TGAGCCACGTGGGTTA | -0.26 kcal/mol
CTATTCACGTGTCGTT | 0.27 kcal/mol
GCGGTCACGTGTGGCA | 0.27 kcal/mol

Sequence | relative binding free energy
GGATTCACGTGCGGGA | 0.27 kcal/mol
GGTGGCACGTGCTATA | -0.18 kcal/mol
TATTTCACGTGACTGG | 0.37 kcal/mol
TTGGTCACGTGGAATG | 0.23 kcal/mol
AGTTTCACGTGTTATA | 0.21 kcal/mol
ATTGGCACGTGTTAAT | -0.02 kcal/mol
AATAGCACGTGGTGCT | 0.04 kcal/mol
GACTTCACGTGGATGT | 0.4 kcal/mol
CTTTACACGTGTAGGT | 0.19 kcal/mol
TCGGACACGTGGATGT | 0.04 kcal/mol
AGTTGCACGTGTTGCT | -0.26 kcal/mol
GGCGGCACGTGCGGAG | -0.07 kcal/mol
TTTACCACGTGTCGGG | 0.06 kcal/mol
CAACACACGTGGGGGG | 0.01 kcal/mol
ATTATCACGTGGTTGG | 0.08 kcal/mol
GGTATCACGTGCGTTA | 0.08 kcal/mol
CGGGGCACGTGAGGGC | 0.12 kcal/mol
CGTTGCACGTGTATAT | -0.06 kcal/mol
CGGTTCACGTGTTATT | 0.18 kcal/mol
AGTTACACGTGAAGGT | 0.42 kcal/mol
CGGGCCACGTGTATGG | -0.04 kcal/mol
GGGTTCACGTGTTCAC | 0.34 kcal/mol
TGGGACACGTGCTTTT | -0.02 kcal/mol
TGTGTCACGTGGGTCA | -0.1 kcal/mol
CGTGTCACGTGGATTA | 0.11 kcal/mol
CTTAGCACGTGTGGGC | 0 kcal/mol

Sequence | relative binding free energy
CGTTGCACGTGTAGGC | 0.03 kcal/mol
AGGCACACGTGTGGAT | 0.14 kcal/mol
GTACACACGTGTTGGT | 0.07 kcal/mol
TTGAGCACGTGGACTT | -0.07 kcal/mol
TAAATCACGTGTATGT | 0.14 kcal/mol
TTGTACACGTGGATCG | 0.03 kcal/mol
GTGTGCACGTGACGGG | 0.22 kcal/mol
TTTTTCACGTGCGAAA | 0.41 kcal/mol
GGTGGCACGTGATTTC | 0.02 kcal/mol
ATTTTCACGTGTAGAT | 0.31 kcal/mol
GGTTACACGTGTTGAT | 0.23 kcal/mol
TAGGACACGTGGCCGT | 0.02 kcal/mol
TTCTTCACGTGAGTGT | 0.42 kcal/mol
TCTGGCACGTGATTGC | 0.15 kcal/mol
GCAGTCACGTGGTATG | 0.12 kcal/mol
GGGTCCACGTGGGCGA | -0.06 kcal/mol
TTTCGCACGTGTAGGT | 0.01 kcal/mol
TACTTCACGTGGGGGA | 0.04 kcal/mol
TTATTCACGTGCGAGT | 0.18 kcal/mol
GATTTCACGTGTATTG | 0.25 kcal/mol
CCTTACACGTGTTTTT | 0.18 kcal/mol
AATCGCACGTGATGGG | 0.1 kcal/mol
TAGCGCACGTGTGATT | 0.08 kcal/mol
GCGTTCACGTGGCGGC | 0.3 kcal/mol
GGTGTCACGTGTTGCT | 0.17 kcal/mol
CGGGGCACGTGGCTTT | -0.19 kcal/mol

Sequence | relative binding free energy
GTTAGCACGTGACGTG | 0.24 kcal/mol
GGCTGCACGTGCTTTG | 0.04 kcal/mol
TCAGGCACGTGGAATG | -0.14 kcal/mol
CGAATCACGTGTATGG | 0.16 kcal/mol
TTGCCCACGTGGTGTG | -0.14 kcal/mol
ATTGTCACGTGGACGA | 0.11 kcal/mol
GTTCTCACGTGGGGAG | 0.27 kcal/mol
TTGTTCACGTGAGGGA | 0.4 kcal/mol
TTGTACACGTGAAGGG | 0.36 kcal/mol
ATGTCCACGTGGGATA | 0.07 kcal/mol
AGCGTCACGTGTCTTG | 0.19 kcal/mol
TGTGTCACGTGGGAGC | -0.03 kcal/mol
CGTATCACGTGGGCGG | -0.16 kcal/mol
TTAGGCACGTGTCGGA | -0.12 kcal/mol
CATGTCACGTGGTATG | 0.05 kcal/mol
ATGATCACGTGTAAGG | 0.24 kcal/mol
GGTAACACGTGTGTAG | 0.08 kcal/mol
AGTAACACGTGGCATT | 0.02 kcal/mol
AGTAACACGTGGGGCG | -0.14 kcal/mol
AGCTGCACGTGGTATG | -0.13 kcal/mol
GGATACACGTGTGTTA | 0.19 kcal/mol
TAAGGCACGTGGACTG | -0.12 kcal/mol
TTTTTCACGTGAGGCT | 0.36 kcal/mol
CGTGGCACGTGTGAGT | -0.08 kcal/mol
AATTGCACGTGCTTAG | 0.03 kcal/mol
TGGGGCACGTGTGAGG | -0.05 kcal/mol

Sequence | relative binding free energy
CGGCTCACGTGAGGGT | 0.35 kcal/mol
TGTAACACGTGTCCGG | 0.01 kcal/mol
TGGATCACGTGGAAGA | 0.3 kcal/mol
CTTTTCACGTGGTGTA | 0.25 kcal/mol
GTTGACACGTGATGTA | 0.14 kcal/mol
CAGGACACGTGGCGTG | -0.01 kcal/mol
TGAGTCACGTGGCGTT | 0.08 kcal/mol
GGTTTCACGTGTGGTC | 0.31 kcal/mol
GTTAACACGTGTCGTA | 0.14 kcal/mol
TGGGTCACGTGGATGA | 0.18 kcal/mol
GTCGTCACGTGGCGGA | 0.07 kcal/mol
AGTGCCACGTGGATTT | -0.03 kcal/mol
TATGCCACGTGTGCGT | -0.14 kcal/mol
TTGTACACGTGGTGCT | -0.01 kcal/mol
GTGAGCACGTGTGAGG | 0.09 kcal/mol
AATCGCACGTGGGTGG | -0.07 kcal/mol
AGGAGCACGTGTGTTT | -0.02 kcal/mol
TTTCGCACGTGGCGGG | -0.1 kcal/mol
TTTGGCACGTGTGTCA | -0.12 kcal/mol
ATTTTCACGTGAAAGA | 0.39 kcal/mol
TGCTGCACGTGTTTGG | 0.09 kcal/mol
GAGAGCACGTGTCGTG | -0.05 kcal/mol
TCGTGCACGTGTTGGC | -0.1 kcal/mol
TACGTCACGTGAGGAG | 0.27 kcal/mol
TAAGTCACGTGAGTAT | 0.28 kcal/mol
GTTGGCACGTGGGTGG | -0.19 kcal/mol

Sequence | relative binding free energy
ATTGTCACGTGGGTCG | 0.04 kcal/mol
TTGGTCACGTGGCGGC | 0.06 kcal/mol
TGGGTCACGTGCGTAT | 0.06 kcal/mol
AGGGTCACGTGGATTC | 0.18 kcal/mol
AGTAGCACGTGGGTTC | -0.09 kcal/mol
AGGGTCACGTGCCTGG | 0.09 kcal/mol
GTGTACACGTGTGGCC | 0.18 kcal/mol
TCAGGCACGTGGCGGG | -0.29 kcal/mol
AGTTTCACGTGGGTTC | 0.28 kcal/mol
TGGTGCACGTGTATTC | -0.07 kcal/mol
TAATCCACGTGTATTG | 0.09 kcal/mol
GGTGCCACGTGTGTAA | 0.09 kcal/mol
TGGGTCACGTGGAGAA | 0.1 kcal/mol
GTAGTCACGTGATTTA | 0.23 kcal/mol
TATTACACGTGTGCGG | 0.21 kcal/mol
TTTATCACGTGATAGC | 0.21 kcal/mol
ATGGGCACGTGAGTAC | 0.09 kcal/mol
AATTTCACGTGTGTAT | 0.31 kcal/mol
GTTAGCACGTGAATGT | 0.29 kcal/mol
GAGGCCACGTGGAGTG | -0.05 kcal/mol
TGAATCACGTGTTTTG | 0.1 kcal/mol
GTTGGCACGTGGCTCG | -0.2 kcal/mol
GGTCTCACGTGTTATG | 0.3 kcal/mol
GATGGCACGTGGTTGA | -0.06 kcal/mol
TTGGGCACGTGGAGTT | 0.05 kcal/mol
TCATTCACGTGATGGT | 0.14 kcal/mol

Sequence | relative binding free energy
GAGGTCACGTGTCGGC | 0.15 kcal/mol
GGTTTCACGTGGATTC | 0.32 kcal/mol
TAAGGCACGTGTGCAA | -0.06 kcal/mol
AGATCCACGTGGTTGT | -0.09 kcal/mol
GTGAGCACGTGTAAAA | 0.21 kcal/mol
TTAGTCACGTGATGAC | 0.24 kcal/mol
GGATTCACGTGCGTTA | 0.4 kcal/mol
GATTTCACGTGTTATT | 0.37 kcal/mol
AGTAGCACGTGGGTTT | -0.15 kcal/mol
TGGCTCACGTGGTAGC | 0.24 kcal/mol
GATGTCACGTGAGATG | 0.17 kcal/mol
CGTTTCACGTGATTGC | 0.46 kcal/mol
TGATGCACGTGCGGGG | -0.2 kcal/mol
ATGTTCACGTGTGCTA | 0.16 kcal/mol
GCTTTCACGTGTGGGC | 0.27 kcal/mol
TTCGGCACGTGTAGGT | 0.04 kcal/mol
TTTGTCACGTGCTCAT | 0.03 kcal/mol
GAGGCCACGTGATGGG | 0.17 kcal/mol
TTGTTCACGTGTAGAA | 0.28 kcal/mol
TGGTTCACGTGAAGCG | 0.26 kcal/mol
GTATTCACGTGGGTGT | 0.15 kcal/mol
TTTCTCACGTGATATT | 0.38 kcal/mol
